According to the GPR68 mutational scans of Howard et al. (2025):

B1: GPR68, Q15743 (parent)
chain: MGNITADNSSMSCTIDHTIHQTLAPVVYVTVLVVGFPANCLSLYFGYLQIKARNELGVYLCNLTVADLFYICSLPFWLQYVLQHDNWSHGDLSCQVCGILLYENIYISVGFLCCISVDRYLAVAHPFRFHQFRTLKAAVGVSVVIWAKELLTSIYFLMHEEVIEDENQHRVCFEHYPIQAWQRAINYYRFLVGFLFPICLLLASYQGILRAVRRSHGTQKSRKDQIQRLVLSTVVIFLACFLPYHVLLLVRSVWEASCDFAKGVFNAYHFSLLLTSFNCVADPVLYCFVSETTHRDLARLRGACLAFLTCSRTGRAREAYPLGAPEASGKSGAQGEEPELLTKLHPAFQTPNSPGSGGFPTGRLA

Key:
[1] = variants of: B1; assay: cAMP reporter score (Enrich2 score, wild type = 0); higher = more signal; HEK293T, FACS bins
[2] = variants of: B1; assay: surface expression score (Enrich2 score, wild type = 0); higher = more signal; HEK293T, FACS bins

Work on MGNITADNSSMSCTIDHTIHQTLAPVVYVTVLVVGFPANCLSLYFGYLQIKARNELGVYLCNLTVADLFYICSLPFWLQYVLQHDNWSHGDLSCQVCGILLYENIYISVGFLCCISVDRYLAVAHPFRFHQFRTLKAAVGVSVVIWAKELLTSIYFLMHEEVIEDENQHRVCFEHYPIQAWQRAINYYRFLVGFLFPICLLLASYQGILRAVRRSHGTQKSRKDQIQRLVLSTVVIFLACFLPYHVLLLVRSVWEASCDFAKGVFNAYHFSLLLTSFNCVADPVLYCFVSETTHRDLARLRGACLAFLTCSRTGRAREAYPLGAPEASWKSGAQGEEPELLTKLHPAFQTPNSPGSGGFPTGRLA [G329W] yielded a cAMP reporter score ([1]; pH 5.5) of -0.395, a cAMP reporter score ([1]; pH 6, modulator: ogerin) of 0.263 and a cAMP reporter score ([1]; pH 6.5, modulator: ogerin) of 0.124. For the same variant, the surface expression score [2] was -0.363.

For MGNITADNSSMSCTIDHTIHQTLAPVVYVTVLVVGFPANCLSLYFGYLQIKARNELGVYLCNLTVADLFYICSLPFWLQYVLQHDNWSHGDLSCQVCGILLYENIYISVGFLCCISVDRYLAVAHPFRFHQFRTLKAAVGVSVVIWAKELLTSIYFLMHEEVIEDENQHRVCFEHYPIQAWQRAINYYRFLVGFLFPICLLLASYQGILRAVRRSHGTQKSRKDQIQRLVLSTVVIFLACFLPYHVLLLVRSVWEASCDFAKGVFNAYHFSLLLTSFNCVADPVLYCFVSETTHRDLARLRGACLAFLTCSRTGRAREAYPLGAPEASYKSGAQGEEPELLTKLHPAFQTPNSPGSGGFPTGRLA [G329Y], the cAMP reporter score ([1]; pH 5.5) was -0.789, the cAMP reporter score ([1]; pH 6) was -1.42 and the cAMP reporter score ([1]; pH 6, modulator: ogerin) was -0.835. The cAMP reporter score ([1]; pH 6.5, modulator: ogerin) was -0.694 and the surface expression score [2] was -1.13.

Variant G329_K330del has a cAMP reporter score ([1]; pH 5.5) of 0.597, a cAMP reporter score ([1]; pH 6, modulator: ogerin) of 0.676 and a cAMP reporter score ([1]; pH 6.5, modulator: ogerin) of 1.23. It also gave a surface expression score [2] of 0.031.

For G329_S331del, the cAMP reporter score ([1]; pH 5.5) was 1.86, the cAMP reporter score ([1]; pH 6) was 0.506 and the cAMP reporter score ([1]; pH 6, modulator: ogerin) was 0.778. It also gave a cAMP reporter score ([1]; pH 6.5, modulator: ogerin) of 1.37 and a surface expression score [2] of 0.639.

With G329del the cAMP reporter score ([1]; pH 5.5) was 0.265, the cAMP reporter score ([1]; pH 6) was -0.438 and the cAMP reporter score ([1]; pH 6, modulator: ogerin) was -0.249. The cAMP reporter score ([1]; pH 6.5, modulator: ogerin) was 0.569 and the surface expression score [2] was 0.097.

In the case of K330_S331insG, the cAMP reporter score ([1]; pH 5.5) is reported as 0.534, the cAMP reporter score ([1]; pH 6) is reported as -0.053 and the cAMP reporter score ([1]; pH 6, modulator: ogerin) is reported as 0.309. It also gave a cAMP reporter score ([1]; pH 6.5, modulator: ogerin) of 0.129 and a surface expression score [2] of -0.497.

S331_A333del showed a cAMP reporter score ([1]; pH 5.5) of 2.46, a cAMP reporter score ([1]; pH 6) of 0.93 and a cAMP reporter score ([1]; pH 6, modulator: ogerin) of 2.5. It also gave a cAMP reporter score ([1]; pH 6.5, modulator: ogerin) of 1.34 and a surface expression score [2] of 0.893.

Work on S331del yielded a cAMP reporter score ([1]; pH 5.5) of -0.359, a cAMP reporter score ([1]; pH 6, modulator: ogerin) of 1.44 and a cAMP reporter score ([1]; pH 6.5, modulator: ogerin) of -0.513. It also gave a surface expression score [2] of -0.746.

Variant G332_A333del has a cAMP reporter score ([1]; pH 5.5) of 0.282, a cAMP reporter score ([1]; pH 6) of 0.011 and a cAMP reporter score ([1]; pH 6, modulator: ogerin) of 0.136. The cAMP reporter score ([1]; pH 6.5, modulator: ogerin) was 0.4 and the surface expression score [2] was 0.249.

For G332_A333insG, the cAMP reporter score ([1]; pH 5.5) was 0.224, the cAMP reporter score ([1]; pH 6) was 0.348 and the cAMP reporter score ([1]; pH 6, modulator: ogerin) was 1.03. The cAMP reporter score ([1]; pH 6.5, modulator: ogerin) was -0.696 and the surface expression score [2] was 0.864.

G332_Q334del gave a cAMP reporter score ([1]; pH 5.5) of 0.139, a cAMP reporter score ([1]; pH 6) of -0.586 and a cAMP reporter score ([1]; pH 6, modulator: ogerin) of 0.34. It also gave a cAMP reporter score ([1]; pH 6.5, modulator: ogerin) of -0.031 and a surface expression score [2] of -0.429.

In the case of MGNITADNSSMSCTIDHTIHQTLAPVVYVTVLVVGFPANCLSLYFGYLQIKARNELGVYLCNLTVADLFYICSLPFWLQYVLQHDNWSHGDLSCQVCGILLYENIYISVGFLCCISVDRYLAVAHPFRFHQFRTLKAAVGVSVVIWAKELLTSIYFLMHEEVIEDENQHRVCFEHYPIQAWQRAINYYRFLVGFLFPICLLLASYQGILRAVRRSHGTQKSRKDQIQRLVLSTVVIFLACFLPYHVLLLVRSVWEASCDFAKGVFNAYHFSLLLTSFNCVADPVLYCFVSETTHRDLARLRGACLAFLTCSRTGRAREAYPLGAPEASGKSGCQGEEPELLTKLHPAFQTPNSPGSGGFPTGRLA [A333C], the cAMP reporter score ([1]; pH 5.5) is reported as 0.741, the cAMP reporter score ([1]; pH 6) is reported as 1.17 and the cAMP reporter score ([1]; pH 6, modulator: ogerin) is reported as 0.997. The cAMP reporter score ([1]; pH 6.5, modulator: ogerin) was 1.66 and the surface expression score [2] was 0.459.

MGNITADNSSMSCTIDHTIHQTLAPVVYVTVLVVGFPANCLSLYFGYLQIKARNELGVYLCNLTVADLFYICSLPFWLQYVLQHDNWSHGDLSCQVCGILLYENIYISVGFLCCISVDRYLAVAHPFRFHQFRTLKAAVGVSVVIWAKELLTSIYFLMHEEVIEDENQHRVCFEHYPIQAWQRAINYYRFLVGFLFPICLLLASYQGILRAVRRSHGTQKSRKDQIQRLVLSTVVIFLACFLPYHVLLLVRSVWEASCDFAKGVFNAYHFSLLLTSFNCVADPVLYCFVSETTHRDLARLRGACLAFLTCSRTGRAREAYPLGAPEASGKSGDQGEEPELLTKLHPAFQTPNSPGSGGFPTGRLA [A333D] gave a cAMP reporter score ([1]; pH 5.5) of 0.309, a cAMP reporter score ([1]; pH 6) of 0.085 and a cAMP reporter score ([1]; pH 6, modulator: ogerin) of -0.326. The cAMP reporter score ([1]; pH 6.5, modulator: ogerin) was -0.009 and the surface expression score [2] was 0.302.

The least precise scores are not listed. Two further conditions of the source, in which the scores hardly spread, are not listed. Read del as a deletion of the residues named and ins as an insertion between two positions. For some assays here: The concentration of ogerin is not given here.
